{"source": "paper PMC2680354", "about": "(Molecular cell, 2008)", "binders": {"B1": {"name": "GST-N-WASP VCA (other)", "chain": "[about 200 residues not shown]HQVPASSGNKAALLDQIREGAQLKKVEQNSRPVSCSGRDALLDQIRQGIQLKSVSDGQESTPPTPAPTSGIVGALMEVMQKRSKAIHSSDEDEDDDDEEDFQDDDEWED"}}, "molecular_target": "Arp2/3 complex (UniProt P61158)", "assay": "fluorescence polarisation", "data": [{"binder": "B1", "values": [{"measurement": "fold increase in affinity of the GST-VCA dimer over the VCA monomer", "value": 180, "unit": "fold"}]}]}
